Reference: patent US20230398181A1 (ACCELERON PHARMA, published 2023)
Like-named read-outs stand apart in the source and are kept apart here.

Legend:
Assay in all cases: cell-based or functional assay
[1] = molecular target: T1, Human TGFβ1 (human, UniProt P01137 partial chain)
[2] = molecular target: T1, Human TGFβ1; remark: listed apart in the source
[3] = molecular target: T1, Human TGFβ1; remark: listed apart in the source

T1 sequence (P01137 279-390 limits assumed): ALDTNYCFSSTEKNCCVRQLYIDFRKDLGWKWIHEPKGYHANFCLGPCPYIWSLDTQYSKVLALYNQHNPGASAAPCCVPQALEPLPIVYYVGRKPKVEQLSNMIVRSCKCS

| Binder | IC50; pGL3(CAGA)12 luciferase reporter gene assay in A549 cells [1] | IC50 (read off the curve); pGL3(CAGA)12 luciferase reporter gene assay in A549 cells, TGFb1 at 640 pg/mL [2] [ng/mL] | IC50; pGL3(CAGA)12 luciferase reporter gene assay in A549 cells [3] [pM] |
| --- | --- | --- | --- |
| hTβRII-hFc (Fc fusion) GATIPPHVQKSDVEMEAQKDEIICPSCNRTAHPLRHINNDMIVTDNNGAVKFPQLCKFCDVRFSTCDNQKSCMSNCSITSICEKPQEVCVAVWRKNDENITLETVCHDPKLPYHDFILEDAASPKCIMKEKKKPGETFFMCSCSSDECNDNIIFSEEYNTSNPDTG[human IgG1 Fc and a few adjoining residues not written out] | 7.69 nM |  |  |
| hTβRII (G4S)4-hFc (Fc fusion) GATIPPHVQKSDVEMEAQKDEIICPSCNRTAHPLRHINNDMIVTDNNGAVKFPQLCKFCDVRFSTCDNQKSCMSNCSITSICEKPQEVCVAVWRKNDENITLETVCHDPKLPYHDFILEDAASPKCIMKEKKKPGETFFMCSCSSDECNDNIIFSEEYNTSNPDTGGGGSGGGGSGGGGSGGG[human IgG1 Fc and a few adjoining residues not written out] | 70 pM |  |  |
| hTβRII (G4S)6-hFc (Fc fusion) GATIPPHVQKSDVEMEAQKDEIICPSCNRTAHPLRHINNDMIVTDNNGAVKFPQLCKFCDVRFSTCDNQKSCMSNCSITSICEKPQEVCVAVWRKNDENITLETVCHDPKLPYHDFILEDAASPKCIMKEKKKPGETFFMCSCSSDECNDNIIFSEEYNTSNPDTGGGGSGGGGSGGGGSGGGGSGGGGSGGG[human IgG1 Fc and a few adjoining residues not written out] |  | ~2 | 20 |
| hTβRII (G4S)5-hFc (Fc fusion) GATIPPHVQKSDVEMEAQKDEIICPSCNRTAHPLRHINNDMIVTDNNGAVKFPQLCKFCDVRFSTCDNQKSCMSNCSITSICEKPQEVCVAVWRKNDENITLETVCHDPKLPYHDFILEDAASPKCIMKEKKKPGETFFMCSCSSDECNDNIIFSEEYNTSNPDTGGGGSGGGGSGGGGSGGGGSGGG[human IgG1 Fc and a few adjoining residues not written out] |  | ~3 | 30 |

Further lines, results first:

| IC50; pGL3(CAGA)12 luciferase reporter gene assay in A549 cells [1] | IC50 (read off the curve); pGL3(CAGA)12 luciferase reporter gene assay in A549 cells, TGFb1 at 640 pg/mL [2] [ng/mL] | IC50; pGL3(CAGA)12 luciferase reporter gene assay in A549 cells [3] [pM] | Binder |
| --- | --- | --- | --- |
| 5.67 nM |  |  | hTβRII extended hinge-hFc (Fc fusion) GATIPPHVQKSDVEMEAQKDEIICPSCNRTAHPLRHINNDMIVTDNNGAVKFPQLCKFCDVRFSTCDNQKSCMSNCSITSICEKPQEVCVAVWRKNDENITLETVCHDPKLPYHDFILEDAASPKCIMKEKKKPGETFFMCSCSSDECNDNIIFSEEYNTSNPDTGGG[human IgG1 Fc not written out] |
| 1.12 nM |  |  | hTβRII (G4S)2-hFc (Fc fusion) GATIPPHVQKSDVEMEAQKDEIICPSCNRTAHPLRHINNDMIVTDNNGAVKFPQLCKFCDVRFSTCDNQKSCMSNCSITSICEKPQEVCVAVWRKNDENITLETVCHDPKLPYHDFILEDAASPKCIMKEKKKPGETFFMCSCSSDECNDNIIFSEEYNTSNPDTGGGGSGGG[human IgG1 Fc and a few adjoining residues not written out] |
| 0.22 nM |  |  | hTβRII (G4S)3-hFc (Fc fusion) GATIPPHVQKSDVEMEAQKDEIICPSCNRTAHPLRHINNDMIVTDNNGAVKFPQLCKFCDVRFSTCDNQKSCMSNCSITSICEKPQEVCVAVWRKNDENITLETVCHDPKLPYHDFILEDAASPKCIMKEKKKPGETFFMCSCSSDECNDNIIFSEEYNTSNPDTGGGGSGGGGSGGG[human IgG1 Fc and a few adjoining residues not written out] |
